Experimental data published in PMC4336329 (PLoS ONE, 2015).
In all, about 310,000 compounds went through this assay and about 2,200 (0.71%) showed an effect of 50% or more. Effects have a minus sign here. The list shows a part of the results.

biological target: human ether-à-go-go-related gene (hERG) potassium channel (human, UniProt Q12809); assay: primary screen, population patch clamp on CHO cells stably expressing hERG
Sequence (Q12809 whole entry, looked up): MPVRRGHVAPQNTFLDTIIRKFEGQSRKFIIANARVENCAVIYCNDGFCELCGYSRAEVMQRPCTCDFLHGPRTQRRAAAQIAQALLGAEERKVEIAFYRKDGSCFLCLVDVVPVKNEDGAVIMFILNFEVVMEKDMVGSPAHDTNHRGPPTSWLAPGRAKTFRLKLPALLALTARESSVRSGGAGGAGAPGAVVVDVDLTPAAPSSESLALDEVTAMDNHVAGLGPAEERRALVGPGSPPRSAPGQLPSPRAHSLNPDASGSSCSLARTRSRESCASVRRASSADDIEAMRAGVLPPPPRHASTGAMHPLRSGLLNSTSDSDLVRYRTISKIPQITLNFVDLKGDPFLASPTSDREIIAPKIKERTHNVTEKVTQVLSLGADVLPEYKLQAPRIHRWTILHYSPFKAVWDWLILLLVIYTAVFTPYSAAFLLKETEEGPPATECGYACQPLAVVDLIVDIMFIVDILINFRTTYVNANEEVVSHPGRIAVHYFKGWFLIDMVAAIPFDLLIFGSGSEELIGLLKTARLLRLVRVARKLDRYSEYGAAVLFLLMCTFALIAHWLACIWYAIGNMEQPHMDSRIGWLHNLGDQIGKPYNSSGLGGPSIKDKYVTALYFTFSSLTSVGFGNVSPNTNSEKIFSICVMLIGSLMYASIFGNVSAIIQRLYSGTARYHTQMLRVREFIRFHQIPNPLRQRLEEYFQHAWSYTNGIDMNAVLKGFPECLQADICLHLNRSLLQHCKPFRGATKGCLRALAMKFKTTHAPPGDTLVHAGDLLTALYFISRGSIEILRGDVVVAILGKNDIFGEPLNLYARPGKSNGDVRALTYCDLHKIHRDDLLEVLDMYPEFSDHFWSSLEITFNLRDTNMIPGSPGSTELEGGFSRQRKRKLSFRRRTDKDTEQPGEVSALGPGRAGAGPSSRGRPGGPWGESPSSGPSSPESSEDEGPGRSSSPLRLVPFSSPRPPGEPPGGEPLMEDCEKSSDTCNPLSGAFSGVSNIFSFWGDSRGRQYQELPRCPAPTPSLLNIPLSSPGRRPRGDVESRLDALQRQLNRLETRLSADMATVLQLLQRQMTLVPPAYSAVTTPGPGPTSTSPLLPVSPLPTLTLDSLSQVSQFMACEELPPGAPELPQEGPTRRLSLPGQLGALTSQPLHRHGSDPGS

| Structure (SMILES) | hERG current change (%, negative = inhibition) at 1uM [%] |
| --- | --- |
| Cc1ccc(NC(=S)NCc2ccccc2Cl)c(C)c1 | 5.27 |
| COc1ccc(C(=O)Nc2cccc(-c3nc4ncccc4o3)c2C)cc1OC | 8.23 |
| Cc1ccc(NC(=S)NCC23C=CC(O2)C2C(=O)N(c4ccc(C)cc4)C(=O)C23)cc1 (stereo not shown) | -2.13 |
| O=C(c1cn(-c2ccccc2)nc1-c1cc2ccccc2oc1=O)N1CCOCC1 | 0.492 |
| COc1cc(OC)cc(C(=O)NCCc2ccc(OC)c(OC)c2)c1 | 6.86 |
| CC(=O)NS(=O)(=O)c1ccc(NC(=O)c2ccccn2)cc1 | 10.4 |
| CCOc1ccccc1-n1nnnc1SCC(=O)Nc1cc2oc3ccccc3c2cc1OC | 9.01 |
| O=C1c2ccccc2C(Nc2ccc3c(c2)OCCO3)N1Cc1ccco1 (stereo not shown) | 2.68 |
| COc1ccc(N(C)C(=O)C2CCCN2S(=O)(=O)c2cccc3nsnc23)cc1 (stereo not shown) | 10.7 |
| N#C/C(=C\c1ccccn1)c1ccccn1 | 12 |
| O=C(Cn1cnc2c(cnn2-c2ccc(Cl)cc2)c1=O)NC1CCCCC1 | 21.3 |
| O=C(COC(=O)Cn1cnc2ccccc2c1=O)Nc1cc(Cl)ccc1[N+](=O)[O-] | 12.9 |
| CC1CCCCC1NC(=O)CN1CCC(NC(=O)c2ccc([N+](=O)[O-])cc2)CC1 (stereo not shown) | 12.1 |
| CCC12CN(C(=O)c3ccco3)CC(CC)(CN(C(=O)c3ccco3)C1)C2=O | 16.7 |
| COc1ccc(Cl)cc1S(=O)(=O)N1CCN(Cc2ccc3c(c2)OCO3)CC1 | 1.84 |
| CC(C)c1ccc(OCC(=O)NC2=NCCS2)cc1 | 6.99 |
| O=C(COc1ccccc1[N+](=O)[O-])Nc1cc(Cl)ccc1C(=O)O | 7.98 |
| N#Cc1ccccc1OCC(=O)OCC(=O)NC1CC1 | 8.31 |
| CCCCNC(=O)Nc1ccc2c(c1)N(C)C(=O)c1ccccc1S2 | 17.1 |
| COc1ccc(S(=O)(=O)c2cnc3ccccc3n2)cc1 | 2.73 |
| O=C(COC(=O)c1cccnc1Cl)Nc1ccc2c(c1)OCO2 | 11.8 |
| CCOc1ccccc1NC(=O)C(Sc1ccccc1)c1ccccc1 (stereo not shown) | 14.2 |

| Structure (SMILES) | hERG current change (%, negative = inhibition) at 1uM [%] |
| --- | --- |
| CCCN(CC1CC1)C(=O)COC(=O)c1ccc2c(c1)C(=O)N(c1ccc(OCC)cc1)C2=O | -42.4 |
| CCOCCCNC(=O)c1ccc(-n2c(=S)[nH]c3ccccc3c2=O)cc1 | 4.47 |
| Cc1cc(=O)[nH]c(SCC(=O)N2CCN(S(=O)(=O)c3ccccc3)C2)n1 | 10.6 |
| O=C(/C=C/c1ccc(F)cc1)Nc1nc2ccccc2[nH]1 | 2.62 |
| COCCC(=O)N1CCC(Oc2ccc(C(=O)N3CCCCC3COC)cc2)CC1 (stereo not shown) | 8.65 |
| CCc1ccccc1NC(=S)NN | 16.6 |
| O=C(CC1SC(=O)N(Cc2ccc(Cl)cc2)C1=O)Nc1nccs1 (stereo not shown) | 3.52 |
| O=C(Cc1ccccc1)NCCCN1CCN(CCCNC(=O)Cc2ccccc2)CC1 | 11.8 |
| CCOC(=O)C1(Cc2cccc(Cl)c2)CCCN(C(=O)c2ccnn2C)C1 (stereo not shown) | 11.1 |
| O=C1N=c2ccccc2=C/C1=C\c1c(O)[nH]c(=S)[nH]c1=O | 12.3 |
| CN(C)/C=C1\C(=O)Oc2ccccc2C1=O | 14.5 |
| O=C(N=C1SC2CS(=O)(=O)CC2N1c1ccc(F)cc1)C1CC1 (stereo not shown) | 15.2 |
| CN(C)CCP(=O)(c1ccccc1)c1ccccc1 | 4.25 |
| Cc1ccc2c(c1)c1c(n2CC(O)Cn2nc(C)c(Br)c2C)CCCC1 (stereo not shown) | 13.9 |
| CCCCN(CCCC)S(=O)(=O)c1ccc(NC(=O)CN2CCOCC2)cc1 | -11.1 |
| O=C(COc1ccc(Br)cc1CO)N1CCCc2ccccc21 | 12.1 |
| CN(CC(=O)OCC(=O)NCC(F)(F)F)S(=O)(=O)c1ccc(Cl)cc1 | 9.2 |
| N#CCSc1nnc(-c2sc3ccccc3c2Cl)o1 | -1.64 |
| COc1ccccc1CNC(=O)c1ccc(OCc2c(C)noc2C)c(OC)c1 | 11.5 |
| CC1=CCC2C(=O)N(c3nc4ccccc4n3C)C(=O)C2C1 (stereo not shown) | 2.22 |
| CC1(c2cccc(Br)c2)NC(=O)N(CC(=O)Nc2ccc3c(c2)OCO3)C1=O (stereo not shown) | 8.29 |
| COc1ccc(OC)c(NC(=O)CCc2nnc3ccc(NCc4ccco4)nn23)c1 | 6.34 |

| Structure (SMILES) | hERG current change (%, negative = inhibition) at 1uM [%] |
| --- | --- |
| O=C(CSc1nnc(NC(=O)C2CC(=O)N(c3ccccc3)C2)s1)NCC1CCCO1 (stereo not shown) | 11.1 |
| NS(=O)(=O)c1cc(Cl)c(NC(=O)COC(=O)c2ccccn2)c(Cl)c1 | 12.3 |
| CN(C)CCOc1ccc2ccccc2c1.O=C(O)C(=O)O | 10.4 |
| CC(=O)N(c1ccccc1)c1nc(/C=C/C(=O)Nc2c(C)cc(C)cc2C)cs1 | 11.1 |
| COc1ccccc1NC(=O)N1CCCC1C(=O)NCc1ccccc1Cl (stereo not shown) | 12 |
| Cc1cc(C)c2c(n1)nn1c(N3CCN(c4ccccc4)CC3)cc(C)nc21 | 18.2 |
| O=C(NCCO)Nc1ccc(Cl)cc1 | 20.1 |
| Cc1onc(-c2ccccc2Cl)c1C(=O)Nc1cc(=O)n(C)c(=O)n1C | 15.3 |
| Cc1cccc2cc(COC(=O)c3cccc([N+](=O)[O-])c3)c(=O)[nH]c12 | 17.4 |
| COc1ccc(C(=O)Nc2ccnn2C2CCN(Cc3cn(C)nc3C)CC2)cc1 | 16.3 |
| CC(C)(C)c1cccc(Cn2nnc3ccccc32)c1O | 17.6 |
| CC(/C=N/Nc1nnc(C)c(=O)[nH]1)=C\c1ccccc1 | 1.28 |
| COc1ccc(NC(=O)c2cc3c(=O)n4ccccc4nc3n2C)c(OC)c1 | 4.51 |
| Cc1cc2nc(-c3cccnc3SCC(=O)NCc3ccco3)[nH]c2cc1C | 3.82 |
| Cc1cc(Cl)c(S(=O)(=O)NC2CCCC2)cc1OCC(=O)NC1CCCCC1 | -1.3 |
| CCCOc1ccc(N2C(=O)CC(N3CCN(S(=O)(=O)c4ccccc4)CC3)C2=O)cc1 (stereo not shown) | 9.59 |
| O=C(NCC1CC1)Nc1ccccc1 | 14.6 |
| COC(=O)c1ccccc1NC(NC(=O)c1ccco1)C(=O)c1ccc(C)cc1 (stereo not shown) | 4.56 |
| NC(=O)c1ccccc1NC(=O)CCc1ccccc1 | -1.09 |
| CCN1CCN(c2nc(-c3ccc(F)cc3)cc(=O)[nH]2)CC1 | 6.95 |
| Cc1ccc(S(=O)(=O)c2c(COC(=O)c3ccc(Cl)cc3)c(-c3ccccc3)nn2C)cc1 | 2.77 |
| C=CCOc1ccc(CNn2nnnc2N)cc1 | 17.8 |

| Structure (SMILES) | hERG current change (%, negative = inhibition) at 1uM [%] |
| --- | --- |
| Cc1ccccc1C(=O)Nc1cc(-c2cc(C(C)(C)C)oc2C)nn1C | 10.3 |
| [O-]/C(=C(\C(=S)Nc1ccc(SC(F)F)cc1)[n+]1ccccc1)c1ccc(Cl)cc1Cl | 6.05 |
| CCc1ccccc1NC(=O)c1ccc(CN2CCC(Cc3ccccc3)CC2)cc1 | 5.13 |
| CCc1ccc(O)c(N=Cc2cccc(C)c2O)c1 | 13 |
| COc1ccc(N2CC(C(=O)Nc3ccccc3C(=O)NC3CC3)CC2=O)cc1 (stereo not shown) | 10.7 |
| N#Cc1ncc(-c2ccc3c(c2)OCCOCCOCCOCCOCCO3)nc1C#N | -84.8 |
| Cc1cc(C)c(OCC(=O)NCC(c2ccco2)N2CCCCC2)c(C)c1 (stereo not shown) | 1.04 |
| Cl.Clc1ccccc1/C=N/N1CCN(Cc2ccccc2)CC1 | 8.02 |
| CC(CCc1ccccc1)NC(=O)C(Cc1ccccc1)NC(N)=O (stereo not shown) | 16.3 |
| CCc1ccc(OCC(O)CNC(C)(C)C)cc1.Cl (stereo not shown) | 4.94 |
| COc1ccc(OC)c(-c2csc(NC(=O)Cc3cccs3)n2)c1 | 8.97 |
| Cc1ccc(S(=O)(=O)N2CCN(C(=O)c3n[nH]c(=O)c4ccccc34)CC2)c(C)c1 | -6.11 |
| Cc1ccc(S(=O)(=O)/N=C(/c2ccccc2)N2CCOCC2)cc1 | 11.9 |
| CCCC(NC(=O)COc1cc2c(c3oc(=O)cc(C)c13)CCC(C)(C)O2)C(=O)O (stereo not shown) | 12.8 |
| COc1cc(/C=N\NC(=O)c2ccc(-c3ccccc3)cc2)cc(OC)c1OC(C)=O | 8.53 |
| Cn1c(NC(=O)c2ccc(F)cc2)c(-c2ccccn2)c(=O)c2ccccc21 | 17 |
| Cc1ccc(C)n1NC(=O)c1ccc([N+](=O)[O-])cc1 | 9.54 |
| O=C1CC(NC(=O)C(F)(F)F)=NN1c1ccccc1 | 9.44 |
| CC(=O)Nc1ccc(Oc2cc(C#N)c(C#N)cc2N2CCCCCC2)cc1 | 15.9 |
| COc1ccccc1N1CCN(S(=O)(=O)/C=C/c2ccccc2)CC1 | 1.66 |
| COc1cc(C)c(CN2CCN(CC(=O)Nc3ccccc3C(=O)NC3CC3)CC2)cc1OC | -87.6 |
| Cc1ccc(S(=O)(=O)N(CC(=O)N/N=C/c2cccc(C)c2)c2cccc3cccnc23)cc1 | 8.65 |
